T1: RBFOX1 RRM RbFoxmut (Fox-RRM*) (Homo sapiens, UniProt Q9NWB1 109-208, R118D;E147R;N151S;E152T)
T1 sequence: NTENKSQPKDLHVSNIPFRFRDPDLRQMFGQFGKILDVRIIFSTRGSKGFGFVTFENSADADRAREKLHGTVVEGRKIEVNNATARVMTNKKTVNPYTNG

B1: ACAGAUG (DNA:RNA)
RNA: GGGAGACCGGAAUUCAGAUUGUCCACAGAUGUUAAAUCCCGUCGUAGCCACCA
DNA 1: CAATCTGAATTCCGGTCTCCC
DNA 2: TGGTGGCTACGACGGGATT
B2: GACUGAC (DNA:RNA)
RNA: GGGAGACCGGAAUUCAGAUUGUCCGACUGACUUAAAUCCCGUCGUAGCCACCA
DNA 1: CAATCTGAATTCCGGTCTCCC
DNA 2: TGGTGGCTACGACGGGATT
B3: AAGCAAA (DNA:RNA)
RNA: B1 RNA with C26A, A27G, G28C, U30A, G31A
DNA 1: CAATCTGAATTCCGGTCTCCC
DNA 2: TGGTGGCTACGACGGGATT
B4: GUGCAUC (DNA:RNA)
RNA: B1 RNA with A25G, C26U, A27G, G28C, G31C
DNA 1: CAATCTGAATTCCGGTCTCCC
DNA 2: TGGTGGCTACGACGGGATT
B5: AAACGCG (DNA:RNA)
RNA: B1 RNA with C26A, G28C, A29G, U30C
DNA 1: CAATCTGAATTCCGGTCTCCC
DNA 2: TGGTGGCTACGACGGGATT
B6: UCUUGCU (DNA:RNA)
RNA: B2 RNA with G25U, A26C, C27U, A30C, C31U
DNA 1: CAATCTGAATTCCGGTCTCCC
DNA 2: TGGTGGCTACGACGGGATT
B7: UAUAAGG (DNA:RNA)
RNA: B1 RNA with A25U, C26A, A27U, G28A, U30G
DNA 1: CAATCTGAATTCCGGTCTCCC
DNA 2: TGGTGGCTACGACGGGATT
B8: GGGUAGU (DNA:RNA)
RNA: B2 RNA with A26G, C27G, G29A, A30G, C31U
DNA 1: CAATCTGAATTCCGGTCTCCC
DNA 2: TGGTGGCTACGACGGGATT
B9: AAGUAUU (DNA:RNA)
RNA: B1 RNA with C26A, A27G, G28U, G31U
DNA 1: CAATCTGAATTCCGGTCTCCC
DNA 2: TGGTGGCTACGACGGGATT
B10: GAGUCUU (DNA:RNA)
RNA: B2 RNA with C27G, G29C, A30U, C31U
DNA 1: CAATCTGAATTCCGGTCTCCC
DNA 2: TGGTGGCTACGACGGGATT
B11: GAAGUAC (DNA:RNA)
RNA: B2 RNA with C27A, U28G, G29U
DNA 1: CAATCTGAATTCCGGTCTCCC
DNA 2: TGGTGGCTACGACGGGATT
B12: GGGGGUA (DNA:RNA)
RNA: B1 RNA with A25G, C26G, A27G, A29G, G31A
DNA 1: CAATCTGAATTCCGGTCTCCC
DNA 2: TGGTGGCTACGACGGGATT
B13: ACUUAGC (DNA:RNA)
RNA: B1 RNA with A27U, G28U, U30G, G31C
DNA 1: CAATCTGAATTCCGGTCTCCC
DNA 2: TGGTGGCTACGACGGGATT
B14: GCCUGUC (DNA:RNA)
RNA: B2 RNA with A26C, A30U
DNA 1: CAATCTGAATTCCGGTCTCCC
DNA 2: TGGTGGCTACGACGGGATT
B15: ACUAUUU (DNA:RNA)
RNA: B1 RNA with A27U, G28A, A29U, G31U
DNA 1: CAATCTGAATTCCGGTCTCCC
DNA 2: TGGTGGCTACGACGGGATT
B16: ACUGUCG (DNA:RNA)
RNA: B1 RNA with A27U, A29U, U30C
DNA 1: CAATCTGAATTCCGGTCTCCC
DNA 2: TGGTGGCTACGACGGGATT
B17: AACCCAC (DNA:RNA)
RNA: B2 RNA with G25A, U28C, G29C
DNA 1: CAATCTGAATTCCGGTCTCCC
DNA 2: TGGTGGCTACGACGGGATT
B18: UGACAGC (DNA:RNA)
RNA: B1 RNA with A25U, C26G, G28C, U30G, G31C
DNA 1: CAATCTGAATTCCGGTCTCCC
DNA 2: TGGTGGCTACGACGGGATT
B19: CAACGUU (DNA:RNA)
RNA: B1 RNA with A25C, C26A, G28C, A29G, G31U
DNA 1: CAATCTGAATTCCGGTCTCCC
DNA 2: TGGTGGCTACGACGGGATT
B20: UCGAUAA (DNA:RNA)
RNA: B1 RNA with A25U, A27G, G28A, A29U, U30A, G31A
DNA 1: CAATCTGAATTCCGGTCTCCC
DNA 2: TGGTGGCTACGACGGGATT

Results on 20 molecules are retold here after article PMC9911399, “Two distinct binding modes provide the RNA-binding protein RbFox with extraordinary sequence specificity”.

Numbering of substitutions follows the chain as printed; changes in the protein carry UniProt numbers. The list shows a part of the results.

For the assay, the target named is T1, RBFOX1 RRM RbFoxmut (Fox-RRM*). Briefly: EMSA; HiTS-Eq, 1 nM pool, 10 min; buffer printed only for the single-RNA assays: 10 mM Tris pH 7.5, 150 mM NaCl, 3.4 mM EDTA, 0.001% NP-40, 30 C. Particulars: tags: His6 N-terminal (pET28a); label: 5' 32P. The method, boiled down: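 A pool of RNA with 7 randomized nucleotides, 5′-radiolabelled and with DNA-annealed flanks, was equilibrated at 1 nM for 10 min in 50 µL with purified RbFox RRM, wild type or mutant, across increasing protein concentrations. Free RNA was separated by 8% native PAGE, excised, reverse-transcribed, barcoded by PCR and sequenced. Relative association constants were obtained from read-count changes of each RNA species versus the control reaction and normalised to the cognate motif.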
(A gel shift assay detects complexes by their altered migration in electrophoresis.)
Turning to B1, the binding signal was 0.138 KA relative to UGCAUGU.

As for B2, the binding signal was 0.139 KA relative to UGCAUGU.

Regarding B3, the binding signal is 0.0764 KA relative to UGCAUGU.

In the case of B4, the binding signal was 0.566 KA relative to UGCAUGU.

For B5, the binding signal was 0.107 KA relative to UGCAUGU.

For the molecule B6, the binding signal was 0.103 KA relative to UGCAUGU.

On to B7, for which the binding signal was 0.0749 KA relative to UGCAUGU.

As to B8, the binding signal is 0.139 KA relative to UGCAUGU.

As for B9, the binding signal is 0.127 KA relative to UGCAUGU.

B10: the binding signal is 0.0734 KA relative to UGCAUGU.

With B11, the binding signal was 0.0666 KA relative to UGCAUGU.

As for B12, the binding signal was 0.137 KA relative to UGCAUGU.

For B13, the binding signal is 0.121 KA relative to UGCAUGU.

As to B14, the binding signal is 0.229 KA relative to UGCAUGU.

On to B15, for which the binding signal was 0.123 KA relative to UGCAUGU.

For B16, the binding signal was 0.114 KA relative to UGCAUGU.

With B17, the binding signal is 0.104 KA relative to UGCAUGU.

For B18, the binding signal was 0.0539 KA relative to UGCAUGU.

As to B19, the binding signal is 0.104 KA relative to UGCAUGU.

B20: the binding signal was 0.0723 KA relative to UGCAUGU.
